From patent US20150320880A1, “ANTIBODY DRUG CONJUGATES” (NOVARTIS AG, priority 2013, published 2015)

Assays:
[1] = system: surface cKIT on GIST-T1 cells; assay: cKIT Ab-mediated internalization by flow cytometry; type: cell-based; details: 10 μg/ml, 30 min to 24 hr at 37° C.
Experimental: The kinetics of cKIT antibody mediated internalization was evaluated by treating with antibody in a cell monolayer using a temperature shift method and flow cytometry readout. GIST-T1 (kindly provided by Dr. Takahiro Taguchi, Kochi U., Japan) cells were seeded at 2.5×10E5 cells/well in five 12-well tissue culture treated plates (BD Falcon 353043). The cells were incubated in a tissue culture incubator at 37° C. with 5% CO2 overnight. The following day medium was removed and replaced with 450 μl fresh medium. […] All cells were incubated for 1 hr on ice, followed by two washes with 1 mL 1× Phosphate buffered saline (PBS) and resuspended in 500 μl cell culture medium. Plates #2-5 were transferred to 37° C. and harvested at time points; 30 min, 2 hr, 4 hr and 24 hr at 37° C. with 5% CO2. 100 μl of cell dissociation buffer (Gibco Cat#13150-016, Life Technologies, Carlsbad, Calif.) was added to plate#1 (4° C. binding control) and incubated at 37° C. until cells were detached. Cells were neutralized with 100 μl of medium and transferred to a 96 well V-bottom tissue culture treated plate (Costar 3894). […] The following day, all samples were analyzed using the BD FACSCanto II® equipment using a HTS system (BD Biosciences, San Jose, Calif.). Samples were analyzed with FlowJo software to obtain the Geometric Mean values of fluorescence for the Phycoerythrin channel. […]

[2] = system: MO7e cells grown in GM-CSF; assay: Mo7e proliferation in GM-CSF (SCF-independent), Example 17; type: cell-based; details: 10 ng/ml GM-CSF, 5 days
Experimental: To evaluate the potential antagonistic properties of the naked antibodies and the ability of the antibody drug conjugates (ADCs) to inhibit the proliferation of a cKIT-expressing cell line, MO7e (DSMZ, Catalog # ACC-104, Braunschweig, Del.) were grown in the presence or absence of cKIT ligand, Stem Cell Factor (SCF), for survival. MO7e cells were grown in either 10 ng/ml human granulocyte-macrophage colony-stimulating factor GM-CSF (R&D Systems Cat#215-GM, Minneapolis, Minn.) or 10 ng/ml human Stem Cell Factor SCF (R&D Systems Cat#255-SC) prior to seeding in 96 well plates (Costar Cat #3904, Corning, Tewksbury, Mass.) at 5000 cells/well in 100 μl dilution medium. A duplicate plate was generated for a day 0 measurement and all plates were incubated in a tissue culture incubator at 37° C. with 5% CO2 overnight. […] Assay plates were shaken gently for 20 min and the resulting luminescence intensity was measured using a Perkin Elmer 1450 Microbeta TriLux® plate reader (Perkin Elmer, Waltham, Mass.). […] Following this incubation period, relative cell viability was determined via the addition of Cell titer Glo reagent as described above. The effect of the ADCs on cell proliferation was calculated using the average of the duplicates as follows: (% Inhibition=(ADC or Ab treated)/(untreated)*100) The % inhibition data was fitted to a 4-parameter logistic equation and IC50 values were determined.

mouse cKIT ECD = assay: SPR (Biacore 2000) affinity measurement; type: binding; details: 25° C.
Experimental: (§1) Affinity of the antibodies to cKIT species orthologues and also to cKIT was determined using SPR technology using a Biacore® 2000 instrument (GE Healthcare, Pittsburgh, Pa.) and with CM5 sensor chips.
(§2) Briefly, HBS-P (0.01 M HEPES, pH 7.4, 0.15 M NaCl, 0.005% Surfactant P20) supplemented with 2% Odyssey® blocking buffer (Li-Cor Biosciences, Lincoln, Nebr.) was used as the running buffer for all the experiments. The immobilization level and analyte interactions were measured by response unit (RU). Pilot experiments were performed to test and confirm the feasibility of the immobilization of the anti-human Fc antibody (Catalog number BR100839, GE Healthcare, Pittsburgh, Pa.) and the capture of the test antibodies.
(§3) For kinetic measurements, the experiments were performed in which the antibodies were captured to the sensor chip surface via the immobilized anti-human Fc antibody and the ability of the cKIT proteins to bind in free solution was determined Briefly, 25 μg/ml of anti-human Fc antibody at pH 5 was immobilized on a CM5 sensor chip through amine coupling at flow rate of 5 μl/minute on all two flow cells to reach 10,500 RUs. 0.1-1 μg/ml of test antibodies were then injected at 10 μl/min for 1 minute. Captured levels of the antibodies were generally kept below 200 RUs. Subsequently, 3.125-50 nM of cKIT receptor extracellular domains (ECD) were diluted in a 2-fold series and injected at a flow rate of 40 μl/min for 3 min over both reference and test flow cells. Table of tested ECDs is listed below. Dissociation of the binding was followed for 10 min. After each injection cycle, the chip surface was regenerated with 3 M MgCl2 at 10 μl/min for 30 s.

human cKIT ECD = target: T1, human cKIT ECD (Homo sapiens, UniProt P10721); assay: SPR (Biacore 2000) affinity measurement; type: binding; details: 25° C.
T1 construct: Human cKIT tr. variant 2, residues 26-520-TAG; made in house; host or cells: HEK293 derived cell lines (293FS), transient transfection
Experimental: as §1, §2, §3

[3] = system: cKIT on normal human CD34+ bone marrow cells; assay: cKIT receptor internalization on bone marrow cells by flow cytometry; type: cell-based; details: 10 μg/ml, 0-240 min
Experimental: In another internalization experiment, the impact of NEG085 on cKIT receptor levels was evaluated on human bone marrow cells. Normal human CD34+ bone marrow cells (All Cells, Cat #ABMO22F, Emeryville, Calif.) were thawed and washed with 10 mL of StemPro®-34 SFM medium (Gibco, Life Technologies, Carlsbad, Calif.). Cells were resuspended in 1.25 mL of StemPro-34 SFM medium at 4×10^5 cells/mL and split equally into two tubes. […] 100 μL of cell suspension was collected at each timepoint (0, 15, 30, 60, 120, and 240 min) from each condition, and placed into an ice cold collection tube to cease internalization. Cells were washed with 3 mL of ice-cold FBS stain buffer and resuspended in 100 μL of FBS stain buffer. […] of 104D2-BV421 (mouse anti-human IgG1 k, Biolegend, San Diego Calif.) was added to each tube and incubated on ice for 1 hour. Following another wash with FBS stain buffer, total cKIT receptors were measured by flow cytometry by assessing the mean fluorescence intensity of BV421 on a FACS Canto II® (BD Biosciences, San Jose, Calif.).

[4] = Day 28, 10 mg/kg Single Dose IV

T1 sequence (P10721 with tags, fused parts or gaps isoform P10721-2): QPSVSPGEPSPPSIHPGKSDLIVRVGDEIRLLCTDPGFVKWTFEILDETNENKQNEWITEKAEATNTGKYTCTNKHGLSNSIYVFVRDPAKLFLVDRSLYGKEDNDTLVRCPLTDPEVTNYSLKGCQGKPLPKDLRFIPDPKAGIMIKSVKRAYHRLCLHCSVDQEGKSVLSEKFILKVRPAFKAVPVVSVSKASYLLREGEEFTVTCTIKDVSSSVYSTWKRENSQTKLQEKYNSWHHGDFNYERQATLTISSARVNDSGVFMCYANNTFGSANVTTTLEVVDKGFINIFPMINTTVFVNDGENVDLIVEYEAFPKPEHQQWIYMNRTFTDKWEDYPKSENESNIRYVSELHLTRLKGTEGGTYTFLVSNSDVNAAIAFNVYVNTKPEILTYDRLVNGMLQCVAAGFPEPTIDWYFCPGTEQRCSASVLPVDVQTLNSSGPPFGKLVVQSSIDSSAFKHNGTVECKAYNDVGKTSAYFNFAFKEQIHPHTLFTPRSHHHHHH

B1: NEG085 (antibody)
heavy: EVQLVESGGGLVQPGGSLRLSCAASGFAFSGYYMAWVRQAPGKGLEWVANINYPGSSTYYLDSVKGRFTISRDNAKNSLYLQMNSLRAEDTAVYYCARGDYYGTTYWYFDVWGQGTTVTVSSASTKGPSVFPLAPSSKSTSGGTAALGCLVKDYFPEPVTVSWNSGALTSGVHTFPAVLQSSGLYSLSSVVTVPSSSLGTQTYICNVNHKPSNTKVDKRV[human IgG1 Fc omitted here]
light: DIQMTQSPSSLSASVGDRVTITCRASQSISSYLNWYQQKPGKAPKLLIYYTSRLQSGVPSRFSGSGSGTDFTLTISSLQPEDFATYYCQQGRRLWSFGGGTKVEIKRTVAAPSVFIFPPSDEQLKSGTASVVCLLNNFYPREAKVQWKVDNALQSGNSQESVTEQDSKDSTYSLSSTLTLSKADYEKHKVYACEVTHQGLSSPVTKSFNRGEC
- internalization of surface cKIT [1]: rapidly internalized
- effect on cell proliferation [2]: no detrimental effect on cell proliferation
- Mean change of tumor volume (mm3 ± SEM) (GIST430 tumor xenograft; [4]): 760 ± 119 mm3
- Survival (Survivors/total) (GIST430 tumor xenograft; [4]): 8/8
- anti-tumor activity (tumor volume) (GIST430 tumor xenograft; SCID-beige mice, single i.v. dose 10 mg/kg): not active
- Affinity mouse cKIT (nM) (mouse cKIT ECD): Not reactive
- Affinity human cKIT (nM) (human cKIT ECD): nanomolar level
- internalization of cKIT [3]: rapidly internalized
